The text below walks through data of the supplement of paper PMC11417369.

± gives the standard deviation of the averaged measurements. The list shows a part of the results.

In the experiment the test system is PfAP2-EXP AP2 domain (GST-tagged). The experiment can be described thus: gcPBM binding intensity (ln(normalized median fluorescence intensity)); higher = stronger DNA binding. Summed up:
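Probes on an Agilent 4 × 180k array were primer-extended, double-stranded and 36 bp long, taken from intergenic genomic regions, with negative controls added. GST-tagged P. falciparum DNA-binding domains from E. coli, about 25 μg on average, were applied to the array for 1 h in 1× PBS containing 1% milk, 0.2 mg/ml BSA, 0.5% salmon testes DNA and 0.03% Triton X-100. Binding intensity, obtained after Alexa488 anti-GST antibody detection and a 488 nm scan, is the highest Masliner-normalised natural-log median intensity across replicate spots of either probe orientation.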
Turning to “ATATATATACATATAACACACACATATATATATATA [CACACA_site8827]”, the “gcPBM binding intensity (ln)” value worked out at 10.1 ± 0.31.

Consider “TTGTATTTATTTATGGGAGGATTATAATCATTGTAG [GTGCAC_negctrl_site268]”, for which the “gcPBM binding intensity (ln)” value is 8.49 ± 0.52.

As to “TAATTCACATTTTATACACACATTCGAACCTTTTTT [CACACA_site3341]”, the “gcPBM binding intensity (ln)” value was 8.81 ± 0.49.

For the sequence “TATAGATATATACGGTGTACATACATAAAAAAAAAA [XGTACX_site1648]”, the “gcPBM binding intensity (ln)” value was 8.54 ± 0.35.

For “ATTTTTATTAGTTATTGTACTTATTATTTATTAATT [XGTACX_site2568]”, the “gcPBM binding intensity (ln)” value amounted to 8.66 ± 0.38.

In the case of “TATAAAGAAATCATTACACACAAATAAATACATACA [CACACA_site2675]”, the “gcPBM binding intensity (ln)” value stood at 8.65 ± 0.59.

As to “TATAGTCAACTAGTCACACATATAATTATATATATA [CACACA_site5872]”, the “gcPBM binding intensity (ln)” value came out at 8.9 ± 0.042.

For “ATATTAATTTCTCATGCATGTTCTTCCCAATTGTAA [TGCATGCA_site425]”, the “gcPBM binding intensity (ln)” value came to 9.09 ± 0.24.

For “GGTTAGACGAAATATACATGCAATGGAAAATAAGTT [TGCATGCA_site23]”, the “gcPBM binding intensity (ln)” value worked out at 9.42 ± 0.24.

With “TCATCATGTATGTACACACATACATATATTATGTAC [CACACA_site1386]”, the “gcPBM binding intensity (ln)” value stood at 8.5 ± 0.3.

For TATAAGTAGATAAGGGTGCACAATATAAATATATAG, the “gcPBM binding intensity (ln)” value worked out at 9.9 ± 0.97.

Regarding “CTTTTTGAAATATTAACACACATTTTGTTAATGAAT [CACACA_site6087]”, the “gcPBM binding intensity (ln)” value turned out to be 8.24 ± 0.38.

As for “CACAAGAAAATTCACACACACACATATATATATATA [CACACA_site3880]”, the “gcPBM binding intensity (ln)” value is 10.1 ± 0.27.

Take “TCCTTAATTCAAAAAATAATATCTTATATTTCAAAT [CACACA_negctrl_site1592]”: the “gcPBM binding intensity (ln)” value was found to be 7.95 ± 0.26.

For “GGAATAAAGACAGCACGTACATATCTTACGAAGCTC [XGTACX_site3918]”, the “gcPBM binding intensity (ln)” value was 8.46 ± 0.36.

Regarding “GGTTCATTAAAGTGTACACATAAATACCGTAACATT [CACACA_site6002]”, the “gcPBM binding intensity (ln)” value is 8.73 ± 0.35.

As for “CTAAGGTATGATTAATCACACACATAAATATATATA [CACACA_site8847]”, the “gcPBM binding intensity (ln)” value is 8.67 ± 0.21.

As for “AGAATAAGAATTATTAGTACTTATAAATATTATATT [XGTACX_site7228]”, the “gcPBM binding intensity (ln)” value came to 8.21 ± 0.38.

On to “GTAAATACACATATGTGTACATATATATATATATAT [XGTACX_site3696]”, for which the “gcPBM binding intensity (ln)” value stood at 10.2 ± 0.35.

On to “TAATTTAAAATATATAGTACACACGTGAACACAAAT [XGTACX_site792]”, for which the “gcPBM binding intensity (ln)” value was found to be 8.89 ± 0.45.

As to “CTATTACATTAAATGTGTACATATATATATATATAT [XGTACX_site5233]”, the “gcPBM binding intensity (ln)” value was 10.1 ± 0.28.

Turning to “GTGGCTACTATATATTGTACGATATTATATATATAC [XGTACX_site8376]”, the “gcPBM binding intensity (ln)” value came out at 8.62 ± 0.28.

For the sequence “ATCGAAATTTTAGAATATATATGATGTTACTTAAGT [GTGCAC_negctrl_site611]”, the “gcPBM binding intensity (ln)” value amounted to 8.44 ± 0.36.

In the case of “TAAAATATCATAGATAGTACATATAACGTTTTATAT [XGTACX_site5666]”, the “gcPBM binding intensity (ln)” value stood at 8.44 ± 0.33.

Regarding “GTAAGAATATTTATAAATGTATAATTTGTATTATTT [GTGCAC_negctrl_site667]”, the “gcPBM binding intensity (ln)” value amounted to 8.12 ± 0.43.

Take “CATGACATAAAAAATATACACACTATAATATATATA [CACACA_site1402]”: the “gcPBM binding intensity (ln)” value worked out at 8.78 ± 0.13.

For the sequence “ATGAAAATTTATATTGCACACATAGGGAATAAAAAA [CACACA_site8667]”, the “gcPBM binding intensity (ln)” value stood at 8.87 ± 0.28.

Consider “AAATATATTATATTTAGTACGCATATATAATATGCA [XGTACX_site4835]”, for which the “gcPBM binding intensity (ln)” value was 8.21 ± 0.25.

For the sequence “AGTTAATTAATAGGCACACATATATATGTATAAATA [CACACA_site523]”, the “gcPBM binding intensity (ln)” value was determined as 8.91 ± 0.43.

Turning to “ACCATATAAATAAACACACACACACCCATATATATA [CACACA_site2321]”, the “gcPBM binding intensity (ln)” value turned out to be 8.74 ± 0.4.

For the sequence “TATATATCTATATTTACACACAGTTACTATGTAGAT [CACACA_site7532]”, the “gcPBM binding intensity (ln)” value amounted to 8.34 ± 0.34.

With “ATAATATGTATAATCACACATTTTTCTTTTAAGACA [CACACA_site5297]”, the “gcPBM binding intensity (ln)” value turned out to be 8.23 ± 0.4.

Turning to “GTTAAACTTAATATCGGTACACACACAAGATAAGAA [XGTACX_site1660]”, the “gcPBM binding intensity (ln)” value was 8.82 ± 0.57.

For the sequence “ATGGATTATACGTGCACACATATATACAAATAAATA [CACACA_site640]”, the “gcPBM binding intensity (ln)” value was 9.43 ± 0.7.

As for “ACCATTTGTAGGTAAACACACATTATTATTAATATC [CACACA_site2635]”, the “gcPBM binding intensity (ln)” value came to 8.48 ± 0.33.

For the sequence “TAAAATGCAATCTGAACACACATATTTTTTTAATAT [CACACA_site6922]”, the “gcPBM binding intensity (ln)” value was 8.18 ± 0.45.

On to TACATCATACGAACAGTGCATATTATTATTGTTCTG, for which the “gcPBM binding intensity (ln)” value stood at 8.36 ± 0.15.

“TACTTACCAAAATACACACACACACTAGATATATAA [CACACA_site5096]”: the “gcPBM binding intensity (ln)” value came out at 8.79 ± 0.49.

With “TATATATCATATGATACATGCAACAAAATGCATAAT [TGCATGCA_site205]”, the “gcPBM binding intensity (ln)” value is 8.89 ± 0.23.

Consider “ATGTATATTACTCATTGTACTTATATTTTCTTATTA [XGTACX_site8897]”, for which the “gcPBM binding intensity (ln)” value worked out at 8.6 ± 0.33.

As for “GTATTTATAAATTATAGTACTTTGCGTATCATATAT [XGTACX_site7358]”, the “gcPBM binding intensity (ln)” value turned out to be 8.86 ± 0.51.

In the case of “ATTTTATATCTGGATAGTACTTTAATATTTCAAATG [XGTACX_site7304]”, the “gcPBM binding intensity (ln)” value was determined as 8.54 ± 0.29.

Regarding “GGATATTCATTAACCACACACACAAAAAAAATAAAA [CACACA_site3800]”, the “gcPBM binding intensity (ln)” value was determined as 8.74 ± 0.46.

As for “TTATATTATACATACACACCCATATAATATGTTTTT [CACACA_site4636]”, the “gcPBM binding intensity (ln)” value was determined as 8.73 ± 0.42.
